Data taken from PubChem BioAssay AID1963576 (National Center for Advancing Translational Sciences (NCATS), 2024).
About 60 (0.1%) of roughly 46,000 compounds were called active. About 3% were inconclusive and are not listed. Calls follow the shape of the dose curve; as a rule, active = well fitted inhibition curve with a large enough effect; inconclusive = small, poorly fitted or top-dose-only effect; inactive = no such curve, though single readings can be large or run the other way. The list shows a part of the results.

experiment: Primary qHTS assay for Inhibitors of ovarian cancer metastasis using an organotypic tumor microenvironment (TME) model.; also: nearly all actives have a fitted effect of over 65% in size;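 as to activity change, negative = inhibition: plate controls were DMSO wells for no effect and tomatine positive control wells for full effect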; conditions: SKOV3ip1-GFP adhesion/invasion on 3D omental model, fluorescence; series mostly up to 45.8 µM; activity change, negative = inhibition: at the top concentration
Summary of the method: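 A 3D layer of primary human omental fibroblasts, mesothelial cells, fibronectin and collagen I, grown 48 hr, received SKOV3ip1-GFP cells in serum-free medium plus compounds at 0.36-46 umol/L. After 2 hr RT and 16 hr 37 C, fixed adherent GFP cells were counted; normalized to DMSO and tomatine.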

outcome, inactive:
CCC1CCc2nc3sc(C(=O)Nc4ccc(F)c(Cl)c4)c(N)c3cc2C1 (configuration not stated)
CCC(C(=O)Nc1ccccc1C(=O)OC)n1nc(C)c2c(C)n(-c3ccc(C)cc3)nc2c1=O (configuration not stated)
Cc1cccc(-c2nn3c(=O)cc(CN4CCN(S(=O)(=O)c5ccc(Cl)cc5)CC4)nc3s2)c1
COc1ccccc1CNC(=O)CSc1ncc2c(n1)-c1ccc(Cl)cc1N(Cc1ccccc1)S2(=O)=O
O=C(Cn1c(=O)c2cc(Cl)ccc2n2nncc12)Nc1ccccc1
Cc1ccc(NC(=O)C2CCCN2S(=O)(=O)c2ccc3c(c2)CCCC(=O)N3)cc1C (configuration not stated)
CC(=O)Nc1cc(C(=O)NCc2ccc(C)cc2)ccc1Sc1ccc(C)cc1
CCC1CN(C(=O)N2CCC(C(=O)NCCN(CC)CC)CC2)c2ccccc2O1 (configuration not stated)
Cc1cc(=O)n2c(C(=O)Nc3ccc(C)c(Cl)c3)c(C(=O)Nc3ccccc3)sc2n1
COc1cc(Cl)c(C)cc1NC(=O)CCCN1C(=O)C(c2ccccc2)Oc2cccnc21 (configuration not stated)
O=C(CSc1nc2ccccc2nc1Cc1ccc(F)cc1)Nc1ccc2c(c1)OCO2
Cc1ccc(NC(=O)Cn2cc(S(=O)(=O)c3ccc(F)cc3)c(=O)c3cc4c(cc32)OCO4)cc1
CC(C)(C)C(=O)Cn1c(=O)n(CCCCCC(=O)NCc2ccc3c(c2)OCO3)c(=O)c2sccc21
Cc1ccc(C(=O)CSc2nc3cc(C(=O)NC4CCCC4)ccc3c(=O)n2CC2CCCO2)cc1 (configuration not stated)
Cn1c(=O)n(C)c2cc(N3CCCCC3)c(NC(=O)c3ccc(Cl)cc3)cc21
COc1ccc(C(=O)NCCn2cc(SCC(=O)Nc3ccccc3)c3ccccc32)cc1OC
CCOC(=O)C1(C)C=C(Nc2ccc(OC)cc2)C(=O)N1c1ccccc1 (configuration not stated)
CCOc1nc(NC(=O)NS(=O)(=O)Oc2cccc(F)c2)nc(-c2ccccc2)n1
COc1ccc(CNC(=O)c2ccc3c(c2)N(Cc2ccccc2F)C(=O)c2ccccc2S3=O)cc1 (configuration not stated)
COc1ccc(OC)c(NC(=O)Cc2c(C(=O)O)[nH]c3ccc(Cl)cc23)c1
Cc1cccc(C(=O)Nc2c(-c3ccc(F)cc3)nc3ccccn23)c1
O=C(c1ccc(Cl)cc1)N1CCCCC1CCN1CCOCC1 (configuration not stated)
Cc1ccc(NS(=O)(=O)c2ccc3[nH]c4c(c3c2)CCCC4)c(C)c1
Cc1nn(CC(=O)NC2CCCCC2)c(=O)c2cc3cc(F)ccc3n12

Activity change, negative = inhibition, inactive:
Cc1c(Cl)cccc1NC(=O)C(C)n1c(=O)cc(-c2ccccc2)c2c(C)nn(C)c21 (configuration not stated) 1.32%
COc1ccc(NC(=O)C(c2ccc(C)cc2)N(C)C(=O)Cc2cccs2)cc1 (configuration not stated) -6.42%
COc1ccc(-c2cccc(NS(=O)(=O)c3cc(C)c(OC)c(C)c3C)c2)nn1 -3.43%
CCOc1ccccc1C(=O)N1CC(=O)Nc2ccc(Cl)cc2C1c1ccccc1 (configuration not stated) 3.25%
O=C(Cn1c(-c2cccs2)cc2cc(Cl)ccc21)N1CCN(c2ccccc2)CC1 -7.41%
CCc1ccc(NC(=O)c2sc3nc(C)c(Cl)c(C)c3c2N)cc1 38.7%
CCOC(=O)c1ccc(N2CCN(c3cccc(Cl)c3)CC2)c(NC(=O)Nc2ccc(OC)cc2OC)c1 -10.6%
COc1ccc(Cl)cc1NC(=O)CN(C)S(=O)(=O)c1ccc2c(c1)CCCN2C(C)=O 0.212%
C=CCC(CC=C)(CNC(=O)C(=O)Nc1cccc(C(F)(F)F)c1)c1ccccc1 4.89%
O=C(CC(c1cccs1)N1Cc2ccccc2C1=O)Nc1ccc(F)c(Cl)c1 (configuration not stated) -1.91%
CCc1cccc(C)c1NC(=O)CSc1nc(C)cc(C)c1C(=O)Nc1ccccc1 0.457%
CCCN1C(=O)C(O)(CC(=O)c2ccc(CC)cc2)c2ccccc21 (configuration not stated) 8.99%
Cc1ccc(Oc2c(C(F)(F)F)oc3cc(OCC(=O)NC4CCCCC4)ccc3c2=O)cc1 1.01%
CCOC(=O)CSc1nc2ccccc2c(=O)n1CCc1ccc(OC)c(OC)c1 0.329%
COc1ccc(-c2noc(-c3cccnc3NCc3ccco3)n2)cc1 -2.55%
Cc1cccc(-n2c(=O)c3c(c4cc(C)ccc4n3C)n(CC(=O)NCCC3=CCCCC3)c2=O)c1 2.45%
O=C(NCc1ccc2c(c1)OCO2)c1ccc2c(c1)N(Cc1cccc(Cl)c1)C(=O)c1ccccc1S2 -5.68%
Cc1ccc(C(=O)c2sc(Nc3ccccc3F)c(S(=O)(=O)c3ccccc3)c2N)c(C)c1 -5.39%
Cc1cccc(N2CCN(C(=O)C3CCN(S(=O)(=O)c4c(C)noc4/C=C/c4ccccc4F)CC3)CC2)c1C -5.78%
CCN1CCN(C(=O)c2ccc3c(c2)N(Cc2ccc(Cl)cc2)C(=O)c2ccccc2S3(=O)=O)CC1 -8.13%
COc1ccc(C(=O)N(Cc2sccc2C)C2CCS(=O)(=O)C2)cc1Cl (configuration not stated) -15%
CCOC(=O)c1c(Nc2cccc(O)c2)nnc(-c2ccccc2)c1-c1ccccc1 -2.99%
COc1ccc(Cl)cc1NC(=O)Cn1nnc2sc3c(c2c1=O)CCC(C(C)(C)C)C3 (configuration not stated) 0.426%
Cc1ccc(Cl)cc1N1CCN(C(=O)CN2C(=O)COc3ccc(S(=O)(=O)N4CCOCC4)cc32)CC1 -1.02%
CCc1cccc(C)c1NS(=O)(=O)c1c(C(=O)N2CCCCCC2)c(C)n(C)c1C 3.19%
Cc1cc(C)c(Cn2c3ccccc3c3cnn(CC(=O)NCCc4ccccc4)c(=O)c32)c(C)c1 0.792%
O=C(NCc1ccc(F)cc1)c1ccc(CSc2nc3ccncc3n2Cc2ccc(F)cc2)cc1 -10.3%
CC(=O)c1ccc(NC2=NS(=O)(=O)c3ccccc32)cc1 4.12%
O=C(Nc1nnc(S(=O)(=O)N2CCCCCC2)s1)c1ccc(Br)cc1 -0.568%
COc1ccc(CCNC(=O)c2ccc3c(c2)CCN3S(=O)(=O)c2ccc(Cl)cc2)cc1 5.11%
CCOc1ccccc1C1CC(=O)NC(C)=C1C(=O)OC1CCCCCC1 (configuration not stated) -25.4%
COc1ccc(NC(=O)C2CCCN(S(=O)(=O)c3cn(C)cn3)C2)cc1Cl (configuration not stated) -13%
COc1ccc(-n2c3c(c(=O)[nH]c2=O)C(NC(C)=O)(C(F)(F)F)C(=O)N3)cc1 (configuration not stated) -4.74%
Cc1cccc(Oc2nc3ccccn3c(=O)c2/C=C(\C#N)c2nc3ccccc3s2)c1C 2.87%
Cc1ccc(NC(=O)CSc2nccn2C2CCCC2)cc1 -0.908%
COc1ccc(OC)c(NC(=O)c2ccc(-c3nc(CSc4ccccc4)c(C)o3)cc2)c1 3.13%
CSc1cccc(NS(=O)(=O)c2ccc3[nH]cc(C(=O)N4CCCC4)c(=O)c3c2)c1 0.715%
CCCCn1cc(S(=O)(=O)c2ccc(CC)cc2)c(=O)c2cc(F)c(N3CCCC(C)C3)cc21 (configuration not stated) 2.69%
COc1ccccc1CCNC(=O)c1ccc(NC(=O)N2CC(C)Sc3ccccc32)cc1 (configuration not stated) 0.621%
COc1cc(OC)c(NC(=O)c2c(C)nn(-c3ccc(C)cc3)c2-n2cccc2)cc1Cl 9.17%
Cc1cc(C)cc(NC(=O)C2CCCN2S(=O)(=O)c2ccc3c(c2)C(C)(C)C(=O)N3C)c1 (configuration not stated) 22.5%
COc1ccccc1NC(=O)c1oc2ccccc2c1NC(=O)c1c(F)cccc1F -8.2%
CCOC(=O)c1ccc(NC(=O)c2ccc3c(c2)c(C)c(C)n3Cc2ccc(F)cc2)cc1 -0.292%
COc1ccc(Cn2cc(C(=O)c3ccc(Cl)cc3)c(=O)c3cc4c(cc32)OCO4)cc1 -11.4%
Cc1cc(C)c(Cn2c3ccccc3c3cnn(CC(=O)NC4CCCCCC4)c(=O)c32)c(C)c1 -2.48%
Cc1ccc(-n2nc3c(N4CCC(C(=O)N5CCC(C)CC5)CC4)nnc(C)c3c2C)cc1 1.54%
COc1cc(OC)cc(C(=O)Nc2ccc(S(=O)(=O)N3CCCCC3c3cccnc3)cc2)c1 (configuration not stated) -2.8%
O=C(Nc1cccc(Cl)c1Cl)c1cc(S(=O)(=O)N2CCC3(CC2)OCCO3)ccc1F -3.53%
CCc1ccc(Nc2nn3c(=O)c4cc5c(cc4nc3s2)OCO5)cc1 4.39%
COC(=O)c1cc2oc3ccccc3c2n1Cc1nc(-c2cccc(Cl)c2)oc1C 2.3%
CC(C)(Sc1cc(C(C)(C)C)c(O)c(C(C)(C)C)c1)Sc1cc(C(C)(C)C)c(O)c(C(C)(C)C)c1 -1.1%
CC(=O)Nc1nonc1-c1nnc(SCc2ccccc2C)n1C -12.7%
Cc1ccc(C2=Nc3ccccc3N(CC(=O)NCc3ccc(Cl)cc3)C(=O)C2)cc1C 12%
CCc1ccccc1NC(=O)Cc1ccc(-n2c(C)nc3cccnc32)cc1 9.87%
COc1cccc(-c2ccc3c(N)c(C(=O)Nc4ccc(Cl)cc4F)sc3n2)c1 -12%
O=C(CSc1oc(-c2ccccc2)nc1S(=O)(=O)c1ccc(Br)cc1)NC1CCCCC1 4.15%
O=C(NCCN1CCN(c2ccccc2F)CC1)C1COc2ccccc2C1 (configuration not stated) 1.52%
CCn1c(=O)c2cc(C(=O)Nc3cc(C)c(Cl)cc3OC)sc2c2ccccc21 24.8%
Cc1cc(C)n(-c2nc3cc(Cl)c(Cl)cc3nc2Nc2ccc(F)cc2C)n1 1.19%
Cc1ccc(NC(=O)c2cc3c(Cl)nc4ccc(C)cc4c3s2)c(Cl)c1 -1.35%
COc1ccc(NC(=O)CSc2nc3ccccc3n2CC(=O)N2CCCC(C)C2)cc1 (configuration not stated) 2.35%
Cc1ccc(C)c(N2CCN(C(=O)c3cc4c(=O)n(Cc5cccnc5)ccc4nc3C)CC2)c1 -6.49%
CCOC(=O)c1sc(NC(=O)c2nc3ncccn3n2)c(C(=O)OC(C)C)c1C 5.51%
COc1ccc(CNC(=O)c2cc(-c3cccs3)nc3ccccc23)c(OC)c1 -2.77%
CCOc1ccccc1N1CC(c2nc3ccccc3n2CCOc2ccc(OC)cc2)CC1=O (configuration not stated) -12.9%
CC(=O)N(Cc1cccnc1)c1nc2c(C)cc(C)cc2s1 8.47%
Cc1ccc(-c2nc3ccccn3c2Nc2c(C)cccc2C)o1 10.9%
CC1CCc2c(sc3nnn(Cc4ccccc4)c(=O)c23)C1 (configuration not stated) 10.6%
